Experimental data taken from PubChem BioAssay (NCATS).
The shares of active, inactive and inconclusive entries below differ from those in the screen. For some assays here: Potencies of inconclusive entries are left out as doubtful fits. The source made the active and inactive calls. Unless noted, calls come from the whole dose curve; as a rule, active = well fitted curve in the direction sought with a large enough effect; inconclusive = small, poorly fitted or top-dose-only effect, or another doubt; inactive = no such curve, though single readings can be large; an effect the other way counts as inactive or inconclusive.

Assays:
[1] = biological target: Aldehyde dehydrogenase, mitochondrial (Homo sapiens) (UniProt P05091); test: qHTS for Inhibitors of the Aldehyde Dehydrogenase Family (ALDH2) Primary screen (AID 2061308); conditions: ALDH2 enzyme inhibition qHTS, 1536-well; series mostly up to 56 µM; note: nearly all actives have a fitted effect of over 55% in size; note: potency is the fitted concentration of half-maximal effect
[2] = biological target: Aldehyde dehydrogenase, mitochondrial (Homo sapiens) (UniProt P05091); test: qHTS for Inhibitors of the Aldehyde Dehydrogenase Family (ALDH2) Confirmatory screens (AID 2061303; active = well fitted inhibition curve with a large enough effect; inconclusive = small, poorly fitted or top-dose-only effect; inactive = no such curve, though single readings can be large or run the other way; title and protocol of this record describe different tests; note: nearly all actives have a fitted effect of over 45% in size; note: potency is the fitted concentration of half-maximal effect); conditions: ALDH inhibition qHTS; series mostly up to 45.4 µM
[3] = qHTS for Inhibitors of the Aldehyde Dehydrogenase Family (ALDH1A2, ALDH1A3, ALDH2, ALDH3A1) (AID 2061307); conditions: ALDH inhibition qHTS; series mostly up to 50.3 µM; note: test system not described further here; potency is the fitted concentration of half-maximal effect; nearly all actives have a fitted effect of over 50% in size
[4] = biological target: Retinaldehyde dehydrogenase 3 (Homo sapiens) (UniProt P47895); test: qHTS for Inhibitors of the Aldehyde Dehydrogenase Family (ALDH1A3) Confirmatory screens (AID 2061311); conditions: ALDH inhibition qHTS; series mostly up to 46 µM; note: nearly all actives have a fitted effect of over 60% in size; note: potency is the fitted concentration of half-maximal effect
[5] = biological target: Aldehyde dehydrogenase 1A1 (Homo sapiens) (UniProt P00352); test: qHTS for Inhibitors of the Aldehyde Dehydrogenase Family (ALDH1A1) Confirmatory screens (AID 2061316); conditions: ALDH inhibition qHTS; series mostly up to 47.3 µM; note: nearly all actives have a fitted effect of over 65% in size; note: potency is the fitted concentration of half-maximal effect
[6] = biological target: Retinal dehydrogenase 2 (Homo sapiens) (UniProt O94788); test: qHTS for Inhibitors of the Aldehyde Dehydrogenase Family (ALDH1A2) Confirmation screens (AID 2061314); conditions: ALDH1A2 enzyme inhibition qHTS confirmation; series mostly up to 45.9 µM; note: nearly all actives have a fitted effect of over 65% in size; note: potency is the fitted concentration of half-maximal effect
[7] = biological target: Retinaldehyde dehydrogenase 3 (Homo sapiens) (UniProt P47895); test: qHTS for Inhibitors of the Aldehyde Dehydrogenase Family (ALDH1A3) Primary screen (AID 2061315); conditions: ALDH inhibition qHTS; series mostly up to 56 µM; note: potency is the fitted concentration of half-maximal effect
[8] = BET inhibitor-based combinations targeting novel dependencies in MECOM-rearranged (r) AML: HNT-34 cell line (AID 2202234); conditions: HNT-34 AML viability, CellTiter-Glo luminescence, 48 h; series mostly up to 46 µM; note: nearly all actives have a fitted effect of over 35% in size; note: potency is the fitted concentration of half-maximal effect
Method in brief: (§1)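 First, 500 cells per well were seeded; next, drugs were pinned as 11-point doses; then plates sat 48 hr in the incubator; finally CellTiter-Glo was added and luminescence read, with AUC and Z-AUC computed.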

[9] = biological target: Retinaldehyde dehydrogenase 3 (Homo sapiens) (UniProt P47895); test: qHTS for Inhibitors of the Aldehyde Dehydrogenase Family (ALDH1A3) Validation screen (AID 2061312); conditions: ALDH1A3 enzyme inhibition qHTS validation, fluorescence; series mostly up to 42.4 µM; note: nearly all actives have a fitted effect of over 45% in size; note: potency is the fitted concentration of half-maximal effect
[10] = BET inhibitor-based combinations targeting novel dependencies in MECOM-rearranged (r) AML: SET-2 cell line (AID 2202231); conditions: SET-2 AML cells viability, CellTiter-Glo luminescence, 48 h; viability: stronger effect = lower value, concentration not given here;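 note: plate controls were DMSO treated cells for no effect and wells without cells for full effect; nearly all actives have a fitted effect of over 35% in size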
Method in brief: (§2)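 Each compound was tested at eleven concentrations on cells seeded at 500/well. After two days' incubation, ATP-based luminescence reported viability; responses relative to DMSO and blank wells yielded AUC and cell-line-centred Z-AUC.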

[11] = BET inhibitor-based combinations targeting novel dependencies in MECOM-rearranged (r) AML: UCSD-AML1 cell line (AID 2202235); conditions: UCSD-AML1 AML cells viability, CellTiter-Glo, 48 h; series mostly up to 46 µM; note: potency is the fitted concentration of half-maximal effect; nearly all actives have a fitted effect of over 40% in size
Method in brief: as §1

[12] = BET inhibitor-based combinations targeting novel dependencies in MECOM-rearranged (r) AML: AML-191 cell line (AID 2202236; note: potency is the fitted concentration of half-maximal effect; nearly all actives have a fitted effect of over 35% in size); conditions: AML-191 viability, CellTiter-Glo luminescence, 48 h; series mostly up to 46 µM
Method in brief: as §2

[13] = BET inhibitor-based combinations targeting novel dependencies in MECOM-rearranged (r) AML: OCI-AML3 cell line (AID 2202232); conditions: CellTiter-Glo luminescence, 48 h; Potency: OCI-AML3 viability; series mostly up to 46 µM;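 note: plate controls were DMSO vehicle wells for no effect and wells without cells for full effect; nearly all actives have a fitted effect of over 35% in size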
Method in brief: as §2
Tags give direction and shape of the fitted curve.

Q: Which Potency [1] does the source give for `CN(C(=O)C(c1ccccc1)c1ccccc1)[C@H](CN1CC[C@H](O)C1)c1ccccc1` here?
A: inactive

Q: With `CCC1NC(=O)C2C(Cl)C(Cl)CN2C(=O)C(CC)NC(=O)CC(c2ccccc2)NC(=O)C(CO)NC1=O` (configuration not stated) as the compound, how does the Potency [2] read?
A: inactive

Q: What about the Potency [3] of the same compound?
A: inconclusive [inhibitor, partial curve]

Q: And the Potency [4]?
A: inconclusive [inhibitor, partial curve]

Q: What about the Potency [5] of the same compound?
A: inconclusive [inhibitor, partial curve]

Q: Which results are given for `CC/C=C/C=C/C1(C)OC(OC)=C(C(=O)C2C(C)C(=O)c3cc(OC)c(O)c(O)c3C2(C)O)C1=O` (configuration not stated)?
A: Potency [2]: inconclusive [inhibitor, partial curve, poor fit]; Potency [6]: inconclusive [inhibitor, single point]; Potency [7]: inconclusive [inhibitor, full curve, poor fit]; Potency [5]: inconclusive [inhibitor, full curve]

Q: Which Potency [2] does the source give for `N#C/C(=C\c1ccc(O)c(O)c1)C(N)=S` here?
A: active: 8.96 µM

Q: What about the Potency [6] of the same compound?
A: active: 5.65 µM

Q: And the Potency [5]?
A: active: 1.42 µM

Q: Which Potency [3] does the source give for `NC(=O)COc1c(F)cc(SCCNS(=O)(=O)c2ccccc2)cc1F` here?
A: active: 11.3 µM

Q: What about the Potency [4] of the same compound?
A: inconclusive [inhibitor, single point]

Q: What about the Potency [6] of the same compound?
A: inconclusive [inhibitor, partial curve]

Q: What about the Potency [5] of the same compound?
A: active: 14.2 µM

Q: With `C[C@H]1C(=O)O[C@H]2[C@H](O)[C@]34C5OC(=O)[C@]3(O[C@@H]3OC(=O)[C@H](O)C34[C@H](C(C)(C)C)[C@H]5O)C12O` (some centres not stated) as the compound, how does the Potency [1] read?
A: inactive

Q: For `Cc1nc2ccccn2c1P(=S)(c1ccccc1)c1ccccc1`, which Potency [1] is on record?
A: inconclusive [inhibitor, partial curve, poor fit]

Q: For `CCN1CCN(C(=O)Cc2ccc(Nc3ncc(F)c(Nc4ccc(C(=O)Nc5ccccc5Cl)cc4)n3)cc2)CC1`, which Potency [1] is on record?
A: inactive

Q: What about the Potency [8] of the same compound?
A: active: 1.48 µM

Q: With `CCc1c(C(=O)C(N)=O)c2c(OCC(=O)O)cccc2n1Cc1ccccc1` as the compound, how does the Potency [1] read?
A: inactive

Q: What about the Potency [9] of the same compound?
A: inactive

Q: And the Potency [7]?
A: inactive

Q: What about the viability [10] of the same compound?
A: inactive: 113%

Q: What about the Potency [8] of the same compound?
A: inactive

Q: For `C[C@H]1O[C@@H](O[C@H]2[C@@H](O)C[C@H](O[C@H]3[C@@H](O)C[C@H](O[C@H]4CC[C@@]5(C)[C@H](CC[C@@H]6[C@@H]5CC[C@]5(C)[C@@H](C7=CC(=O)OC7)CC[C@]65O)C4)O[C@@H]3C)O[C@@H]2C)C[C@H](O)[C@@H]1O`, which Potency [1] is on record?
A: inactive

Q: With `c1ccc2c(N3CCNCC3)cccc2c1` as the compound, how does the Potency [9] read?
A: inconclusive [inhibitor, partial curve, poor fit]

Q: Which Potency [1] does the source give for `CC1(N2CCC(n3c([C@@H]4CCCNC4)nc4ccccc43)CC2)CCCCCCC1` here?
A: inactive

Q: What about the Potency [9] of the same compound?
A: inconclusive [inhibitor, full curve]

Q: And the Potency [11]?
A: inconclusive [inhibitor, single point]

Q: What about the Potency [12] of the same compound?
A: active: 20.9 µM

Q: Which Potency [1] does the source give for `Clc1ccc(N2C[C@H]3CC[C@@H](C2)N3)nn1` here?
A: inconclusive [inhibitor, partial curve, poor fit]

Q: Which Potency [1] does the source give for `CCC(C)/C=C(C)/C=C/C1=CC2=C(Cl)C(=O)C(C)(OC(C)=O)C(=O)C2=CO1` (configuration not stated) here?
A: inconclusive [inhibitor, partial curve, poor fit]

Q: Which Potency [1] does the source give for `COC1CC(OC2CCC3(C)C(=CCC4C3CCC3(C)C(C(C)OC5OC(COC6OC(CO)C(O)C(O)C6O)C(O)C(O)C5O)CCC43O)C2)OC(C)C1OC1OC(C)C(O)C(OC)C1O` (configuration not stated) here?
A: inactive

Q: What about the Potency [7] of the same compound?
A: inactive

Q: For `CC(C)OC(=O)c1ccnc2cc(C(OCCN3CCCCC3)c3ccccc3Cl)sc12` (configuration not stated), which Potency [1] is on record?
A: inconclusive [inhibitor, partial curve, poor fit]

Q: What does the source list for `CCCN1CCO[C@H]2c3cc(O)ccc3OC[C@@H]21`?
A: Potency [1]: inactive; Potency [7]: inconclusive [inhibitor, partial curve]

Q: For `C[C@]12CC[C@@H]3c4ccc(OC(=O)N(CCCl)CCCl)cc4CC[C@H]3[C@@H]1CC[C@@H]2OP(=O)(O)O`, which Potency [1] is on record?
A: inconclusive [inhibitor, single point]

Q: What about the Potency [13] of the same compound?
A: inactive

Q: Which Potency [1] does the source give for `CN=C(NS(=O)(=O)c1ccc(Cl)cc1)N1C[C@H](c2ccccc2)C(c2ccc(Cl)cc2)=N1` here?
A: inactive

Q: What about the Potency [9] of the same compound?
A: inactive

Q: For `CCCn1c(C)c(C(=O)c2ccc3ccccc3c2)c2ccccc21`, which Potency [4] is on record?
A: inactive

Q: What about the Potency [6] of the same compound?
A: inactive

Q: Which results are given for `COc1ccc2c(C(=O)c3ccc(Cl)cc3)c(C)n(CC(=O)O)c2c1`?
A: Potency [4]: inactive; Potency [6]: inactive; Potency [5]: inactive
